Sequences with one replicate were seen in a single cluster, so their values are uncertain.
Each sequence was assayed on ATP (assay: switch fluorescence ratio, 500 uM ATP over buffer (Cy3 cluster intensity, sum of 5 cycles each) (fold (ratio)); higher = stronger signal-on switching upon ATP binding; sequences stand for … in TCGTCGGCAGCGTCAGATGTGTATAAGAGACAGTTTTTTTTTTTTTTTTTTTTTTTTT…TC). Settings: aptamer strand: ATP DNA aptamer (quencher-CACCTGGGGGAGTATTGCGGAGGAAGG + anchor), 100 nM annealed; ATP concentration: 500 uM; one replicate.
Method in brief: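 Imaging in selection buffer was followed by imaging after 15 min with 500 uM ATP at 22 °C, for Cy3-labelled switching-strand clusters annealed to 100 nM quencher-labelled ATP aptamer on a modified Illumina MiSeq flow-cell. Five of these buffer/ATP cycles ran, separated by NaOH stripping and re-annealing. The fluorescence ratio per cluster is summed target-cycle over summed buffer-cycle Cy3 intensity, averaged per switch-domain sequence; clusters outside 100-1000 RFU were removed.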
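Note: ATP exposure 15 min at 22 °C before imaging.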

Sequence | switch fluorescence ratio
ATCCCGGCCT | 1.04
ATCCGCGTTT | 1.64
ATCCGGAGGC | 1.07
ATCCGTCGTT | 1.01
ATCCTAGCGA | 1.15
ATCCTCACGA | 1.06
ATCCTGCTCC | 1.15
ATCGAAATCT | 1.09
ATCGACAAT | 1.02
ATCGACAGCC | 1.03
ATCGAGAGCT | 0.988
ATCGAGAGTA | 0.982
ATCGAGGGAT | 0.99
ATCGAGTTCA | 0.93
ATCGATCACT | 1.01
ATCGATCGGG | 0.968
ATCGATTGTG | 1.08
ATCGCATATT | 1.12
ATCGCCCCAC | 1.23
ATCGCGGCTG | 0.993
ATCGCTGTGC | 1.22
ATCGGAGATA | 0.972
ATCGGAGATG | 0.946
ATCGGATGAG | 0.982
ATCGGGACGC | 0.918
ATCGGGTGAA | 1.01

Sequence | switch fluorescence ratio
ATCGGGTTAT | 0.982
ATCGGTGGCT | 1
ATCGGTGGGT | 1.03
ATCGTAGTAT | 0.999
ATCGTCAGGG | 1
ATCGTCCTGA | 0.979
ATCGTCGGTC | 0.938
ATCGTGATCT | 1.02
ATCGTTGGGA | 1
ATCGTTTGG | 0.98
ATCGTTTTAA | 1
ATCTACGTCA | 1.14
ATCTACGTCC | 1.11
ATCTAGCAAG | 1.1
ATCTAGTATG | 0.994
ATCTAGTCAA | 1.08
ATCTAGTGTC | 0.961
ATCTCCCTAG | 1.13
ATCTCGACTG | 1.05
ATCTCGTTTG | 0.934
ATCTCTACCC | 1.01
ATCTCTGGGC | 0.931
ATCTGCGCTT | 1.11
ATCTGGAAGA | 1.03
ATCTGGGTT | 1.03
ATCTGGTTGG | 1.03

Sequence | switch fluorescence ratio
ATCTGTGAGT | 0.972
ATCTGTGGCG | 0.948
ATCTGTTCAA | 1.03
ATCTTACCAG | 1.1
ATCTTCAACG | 1.09
ATCTTCAAGG | 1.02
ATCTTTTGGA | 1.03
ATGAAACGTG | 0.982
ATGAAAGAGG | 0.944
ATGAAATGG | 1.01
ATGAACATTC | 1.02
ATGAAGGAAA | 1.55
ATGAAGTGTA | 0.967
ATGAATCGCA | 1.07
ATGACCAGGG | 1.12
ATGACCTGGT | 1.04
ATGACCTGTA | 1.11
ATGAGAAAGG | 1.02
ATGAGAACCA | 0.996
ATGAGACTGA | 0.991
ATGAGACTGG | 1.05
ATGAGACTTA | 0.978
ATGAGAGTGC | 1.02
ATGAGATCTC | 0.964
ATGAGCATAG | 1.06
ATGAGCGCTG | 1

Sequence | switch fluorescence ratio
ATGAGGACAT | 1.02
ATGAGGCGTT | 1.04
ATGAGGGCGT | 0.99
ATGAGGTAC | 0.985
ATGAGGTACA | 1
ATGAGGTGTT | 1.05
ATGAGTCTAT | 0.992
ATGATACAGC | 1.32
ATGATATGTG | 1.02
ATGATCGGTT | 0.97
ATGATCTGGT | 0.99
ATGATGCCTA | 0.981
ATGATGGGAC | 1.01
ATGATGTTTC | 0.972
ATGATGTTTT | 0.993
ATGATTTAGT | 0.972
ATGATTTGT | 1.05
ATGATTTTT | 1.02
ATGCAAAAAT | 0.956
ATGCAACACT | 1.21
ATGCACGACC | 1.19
ATGCACGCCC | 1.16
ATGCAGTGCT | 1.03
